Assay results: patent publication US12043670B2, “Anti-BCMA antibody-drug conjugates and methods of use” (Eisai R&D Management Co., Ltd., priority 2020, dated 2024)
Substitutions are numbered along the chain they refer to.

B1: AB200-R1a-Fab_VH37 (antibody)
heavy: QVQLVQSGAEVKKPGSSVKVSCKASGGTFTNYWMHWVRQAPGQGLEWMGATYKGHSDTYYNQKFRGRVTITADKSTSTAYMELSSLRSEDTAVYYCARGAIYHGYDVLDNWGQGTLVTVSSASTKGPSVFPLAPSSKSTSGGTAALGCLVKDYFPEPVTVSWNSGALTSGVHTFPAVLQSSGLYSLSSVVTVPSSSLGTQTYICNVNHKPSNTKVDKKVEPKSC
light: DIQMTQSPSSLSASVGDRVTITCSATQDISNYLNWYQQKPGKAPKLLIYFTSNLQSGVPSRFSGSGSGTDFTLTISSLQPEDFATYYCQQYRKLPWTFGQGTKLEIKRTVAAPSVFIFPPSDEQLKSGTASVVCLLNNFYPREAKVQWKVDNALQSGNSQESVTEQDSKDSTYSLSSTLTLSKADYEKHKVYACEVTHQGLSSPVTKSFNRGEC
B2: AB200-R1a-Fab_VH38 (antibody)
heavy: B1 heavy with T30S, K53R, Y60F, R65K, Y102F, H103N
light: B1 light
B3: AB200-R1a-Fab_VH40 (antibody)
heavy: B1 heavy with T30S, Y32F, K53R, Q62H, R65K, D109E
light: B1 light
B4: AB200-R1a-Fab_VH41 (antibody)
heavy: B1 heavy with T30S, K53R, Q62E, R65K, V107I, D109N
light: B1 light
B5: AB200-R1a-Fab_VH42 (antibody)
heavy: B1 heavy with T30S, K53R, D57T, R65K, A100S, L108M
light: B1 light
B6: AB200-R1a-Fab_VH2 (antibody)
heavy: B1 heavy with T30S, K53R, R65Q, I101V, Y102F
light: B1 light
B7: AB200-R1a-Fab_VH44 (antibody)
heavy: B1 heavy with T30S, A50G, K53R, K63R, R65K, V107I
light: B1 light
B8: AB200-R1a-Fab_VH45 (antibody)
heavy: B1 heavy with T30S, K53R, Q62N, R65K, D109E, N110D
light: B1 light
B9: AB200-R1a-Fab_VH46 (antibody)
heavy: B1 heavy with T30S, K53R, Y59N, F64Y, R65K, H103N
light: B1 light
B10: AB200-R1a-Fab_VH48 (antibody)
heavy: B1 heavy with T30S, N31D, K53R, K63R, R65K, L108M
light: B1 light
B11: AB200-R1a-Fab_VH49 (antibody)
heavy: B1 heavy with T30S, M34I, T51S, K53R, R65K, L108I
light: B1 light
B12: AB200-R1a-Fab_VH50 (antibody)
heavy: B1 heavy with T30S, Y52F, K53R, R65K, G66S, I101V
light: B1 light
B13: AB200-R1a-Fab_VH51 (antibody)
heavy: B1 heavy with T30S, K53R, Y59N, R65K, A100T, Y105F
light: B1 light
B14: AB200-R1a-Fab_VH52 (antibody)
heavy: B1 heavy with T28S, T30S, N31D, K53R, D57T, R65K
light: B1 light

assay: ThermoFluor thermostability (Tm); format: physicochemical; settings: Heavy chain screening Round 1; Fab, paired with light chain AB200_VK6

| Molecule | Tm [°C] |
| --- | --- |
| B1 | 81.688 |
| B2 | 80.903 |
| B3 | 82.339 |
| B4 | 79.430 |
| B5 | 82.125 |
| B6 | 80.784 |
| B7 | 79.892 |
| B8 | 81.742 |
| B9 | 79.871 |
| B10 | 80.234 |
| B11 | 83.392 |
| B12 | 80.428 |
| B13 | 79.502 |
| B14 | 82.845 |
